The supplement of paper PMC11876631
± gives the standard deviation of the averaged measurements. Laboratory Escherichia coli strains with one amino-acid change in an essential protein, pooled on minimal glucose agar with carbenicillin or gentamicin at twice the control MIC (plus kanamycin and chloramphenicol for the plasmids), 48 h. Fold change of barcode share against drug-free plates; higher = less susceptible. Active = above 20 in both replicates (the paper's putatively resistant). '<' = one read or none on drug, '>' = one read or none on a drug-free plate. Shares are relative, so most strains fall below 1 when a few take over. Listed are strains with at least 15 reads on both drug-free plates, and hits; most hits rest on fewer reference reads. Replicate rank correlation about 0.5. Edits are read from barcodes.

Target: Escherichia coli (laboratory strain)
Assay: barcode share on antibiotic plates over drug-free plates; higher = less susceptible
Experimental: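 A pool of E. coli strains, each edited to carry one amino-acid change in an essential protein, was grown for 48 h on minimal glucose agar with or without antibiotic; strain barcodes were sequenced; mean of two replicates.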

[1] = antibiotic: carbenicillin, 2× MIC (3.1 µg/mL)
[2] = antibiotic: gentamicin, 2× MIC (MIC 0.45 µg/mL)

B1: lptG F68P (protein)
chain: MQPFGVLDRYIGKTIFTTIMMTLFMLVSLSGIIKFVDQLKKAGQGSYDALGAGMYTLLSVPKDVQIFPPMAALLGALLGLGMLAQRSELVVMQASGFTRMQVALSVMKTAIPLVLLTMAIGEWVAPQGEQMARNYRAQAMYGGSLLSTQQGLWAKDGNNFVYIERVKGDEELGGISIYAFNENRRLQSVRYAATAKFDPEHKVWRLSQVDESDLTNPKQITGSQTVSGTWKTNLTPDKLGVVALDPDALSISGLHNYVKYLKSSGQDAGRYQLNMWSKIFQPLSVAVMMLMALSFIFGPLRSVPMGVRVVTGISFGFVFYVLDQIFGPLTLVYGIPPIIGALLPSASFFLISLWLLMRKS
With B1 the “fold change of barcode share” value [1] was 0.381 ± 0.053 and the “fold change of barcode share” value [2] was 0.074 ± 0.099.

B2: lptG L77W (protein)
chain: MQPFGVLDRYIGKTIFTTIMMTLFMLVSLSGIIKFVDQLKKAGQGSYDALGAGMYTLLSVPKDVQIFFPMAALLGAWLGLGMLAQRSELVVMQASGFTRMQVALSVMKTAIPLVLLTMAIGEWVAPQGEQMARNYRAQAMYGGSLLSTQQGLWAKDGNNFVYIERVKGDEELGGISIYAFNENRRLQSVRYAATAKFDPEHKVWRLSQVDESDLTNPKQITGSQTVSGTWKTNLTPDKLGVVALDPDALSISGLHNYVKYLKSSGQDAGRYQLNMWSKIFQPLSVAVMMLMALSFIFGPLRSVPMGVRVVTGISFGFVFYVLDQIFGPLTLVYGIPPIIGALLPSASFFLISLWLLMRKS
For B2, the “fold change of barcode share” value [1] was 0.601 ± 0.052 and the “fold change of barcode share” value [2] was 0.00378 ± 0.0035.

B3: lptG M289W (protein)
chain: MQPFGVLDRYIGKTIFTTIMMTLFMLVSLSGIIKFVDQLKKAGQGSYDALGAGMYTLLSVPKDVQIFFPMAALLGALLGLGMLAQRSELVVMQASGFTRMQVALSVMKTAIPLVLLTMAIGEWVAPQGEQMARNYRAQAMYGGSLLSTQQGLWAKDGNNFVYIERVKGDEELGGISIYAFNENRRLQSVRYAATAKFDPEHKVWRLSQVDESDLTNPKQITGSQTVSGTWKTNLTPDKLGVVALDPDALSISGLHNYVKYLKSSGQDAGRYQLNMWSKIFQPLSVAVMWLMALSFIFGPLRSVPMGVRVVTGISFGFVFYVLDQIFGPLTLVYGIPPIIGALLPSASFFLISLWLLMRKS
For B3, the “fold change of barcode share” value [1] was 0.235 ± 0.044 and the “fold change of barcode share” value [2] was 0.0084 ± 0.002.

B4: lptG L77D (protein)
chain: MQPFGVLDRYIGKTIFTTIMMTLFMLVSLSGIIKFVDQLKKAGQGSYDALGAGMYTLLSVPKDVQIFFPMAALLGADLGLGMLAQRSELVVMQASGFTRMQVALSVMKTAIPLVLLTMAIGEWVAPQGEQMARNYRAQAMYGGSLLSTQQGLWAKDGNNFVYIERVKGDEELGGISIYAFNENRRLQSVRYAATAKFDPEHKVWRLSQVDESDLTNPKQITGSQTVSGTWKTNLTPDKLGVVALDPDALSISGLHNYVKYLKSSGQDAGRYQLNMWSKIFQPLSVAVMMLMALSFIFGPLRSVPMGVRVVTGISFGFVFYVLDQIFGPLTLVYGIPPIIGALLPSASFFLISLWLLMRKS
For B4, the “fold change of barcode share” value [1] was 0.407 ± 0.12 and the “fold change of barcode share” value [2] was 0.00197 ± 0.00043.

B5: lptG L77Q (protein)
chain: MQPFGVLDRYIGKTIFTTIMMTLFMLVSLSGIIKFVDQLKKAGQGSYDALGAGMYTLLSVPKDVQIFFPMAALLGAQLGLGMLAQRSELVVMQASGFTRMQVALSVMKTAIPLVLLTMAIGEWVAPQGEQMARNYRAQAMYGGSLLSTQQGLWAKDGNNFVYIERVKGDEELGGISIYAFNENRRLQSVRYAATAKFDPEHKVWRLSQVDESDLTNPKQITGSQTVSGTWKTNLTPDKLGVVALDPDALSISGLHNYVKYLKSSGQDAGRYQLNMWSKIFQPLSVAVMMLMALSFIFGPLRSVPMGVRVVTGISFGFVFYVLDQIFGPLTLVYGIPPIIGALLPSASFFLISLWLLMRKS
For B5, the “fold change of barcode share” value [1] was 0.487 ± 0.18 and the “fold change of barcode share” value [2] was 0.00969 ± 0.0047.

B6: lptG M288Q (protein)
chain: MQPFGVLDRYIGKTIFTTIMMTLFMLVSLSGIIKFVDQLKKAGQGSYDALGAGMYTLLSVPKDVQIFFPMAALLGALLGLGMLAQRSELVVMQASGFTRMQVALSVMKTAIPLVLLTMAIGEWVAPQGEQMARNYRAQAMYGGSLLSTQQGLWAKDGNNFVYIERVKGDEELGGISIYAFNENRRLQSVRYAATAKFDPEHKVWRLSQVDESDLTNPKQITGSQTVSGTWKTNLTPDKLGVVALDPDALSISGLHNYVKYLKSSGQDAGRYQLNMWSKIFQPLSVAVQMLMALSFIFGPLRSVPMGVRVVTGISFGFVFYVLDQIFGPLTLVYGIPPIIGALLPSASFFLISLWLLMRKS
In the case of B6, the “fold change of barcode share” value [1] is reported as 0.217 ± 0.049 and the “fold change of barcode share” value [2] is reported as 0.00332 ± 0.0016.

B7: lptG M288D (protein)
chain: MQPFGVLDRYIGKTIFTTIMMTLFMLVSLSGIIKFVDQLKKAGQGSYDALGAGMYTLLSVPKDVQIFFPMAALLGALLGLGMLAQRSELVVMQASGFTRMQVALSVMKTAIPLVLLTMAIGEWVAPQGEQMARNYRAQAMYGGSLLSTQQGLWAKDGNNFVYIERVKGDEELGGISIYAFNENRRLQSVRYAATAKFDPEHKVWRLSQVDESDLTNPKQITGSQTVSGTWKTNLTPDKLGVVALDPDALSISGLHNYVKYLKSSGQDAGRYQLNMWSKIFQPLSVAVDMLMALSFIFGPLRSVPMGVRVVTGISFGFVFYVLDQIFGPLTLVYGIPPIIGALLPSASFFLISLWLLMRKS
In the case of B7, the “fold change of barcode share” value [1] is reported as 0.254 ± 0.018 and the “fold change of barcode share” value [2] is reported as 0.00743 ± 0.0032.

B8: lptG M288P (protein)
chain: MQPFGVLDRYIGKTIFTTIMMTLFMLVSLSGIIKFVDQLKKAGQGSYDALGAGMYTLLSVPKDVQIFFPMAALLGALLGLGMLAQRSELVVMQASGFTRMQVALSVMKTAIPLVLLTMAIGEWVAPQGEQMARNYRAQAMYGGSLLSTQQGLWAKDGNNFVYIERVKGDEELGGISIYAFNENRRLQSVRYAATAKFDPEHKVWRLSQVDESDLTNPKQITGSQTVSGTWKTNLTPDKLGVVALDPDALSISGLHNYVKYLKSSGQDAGRYQLNMWSKIFQPLSVAVPMLMALSFIFGPLRSVPMGVRVVTGISFGFVFYVLDQIFGPLTLVYGIPPIIGALLPSASFFLISLWLLMRKS
With B8 the “fold change of barcode share” value [1] was 0.272 ± 0.015 and the “fold change of barcode share” value [2] was < 0.00383.

B9: lptG M288A (protein)
chain: MQPFGVLDRYIGKTIFTTIMMTLFMLVSLSGIIKFVDQLKKAGQGSYDALGAGMYTLLSVPKDVQIFFPMAALLGALLGLGMLAQRSELVVMQASGFTRMQVALSVMKTAIPLVLLTMAIGEWVAPQGEQMARNYRAQAMYGGSLLSTQQGLWAKDGNNFVYIERVKGDEELGGISIYAFNENRRLQSVRYAATAKFDPEHKVWRLSQVDESDLTNPKQITGSQTVSGTWKTNLTPDKLGVVALDPDALSISGLHNYVKYLKSSGQDAGRYQLNMWSKIFQPLSVAVAMLMALSFIFGPLRSVPMGVRVVTGISFGFVFYVLDQIFGPLTLVYGIPPIIGALLPSASFFLISLWLLMRKS
For B9, the “fold change of barcode share” value [1] was 0.355 ± 0.17 and the “fold change of barcode share” value [2] was < 0.00397.

B10: lptG L77P (protein)
chain: MQPFGVLDRYIGKTIFTTIMMTLFMLVSLSGIIKFVDQLKKAGQGSYDALGAGMYTLLSVPKDVQIFFPMAALLGAPLGLGMLAQRSELVVMQASGFTRMQVALSVMKTAIPLVLLTMAIGEWVAPQGEQMARNYRAQAMYGGSLLSTQQGLWAKDGNNFVYIERVKGDEELGGISIYAFNENRRLQSVRYAATAKFDPEHKVWRLSQVDESDLTNPKQITGSQTVSGTWKTNLTPDKLGVVALDPDALSISGLHNYVKYLKSSGQDAGRYQLNMWSKIFQPLSVAVMMLMALSFIFGPLRSVPMGVRVVTGISFGFVFYVLDQIFGPLTLVYGIPPIIGALLPSASFFLISLWLLMRKS
In the case of B10, the “fold change of barcode share” value [1] is reported as 0.275 ± 0.089 and the “fold change of barcode share” value [2] is reported as < 0.00519.

B11: lptG M289A (protein)
chain: MQPFGVLDRYIGKTIFTTIMMTLFMLVSLSGIIKFVDQLKKAGQGSYDALGAGMYTLLSVPKDVQIFFPMAALLGALLGLGMLAQRSELVVMQASGFTRMQVALSVMKTAIPLVLLTMAIGEWVAPQGEQMARNYRAQAMYGGSLLSTQQGLWAKDGNNFVYIERVKGDEELGGISIYAFNENRRLQSVRYAATAKFDPEHKVWRLSQVDESDLTNPKQITGSQTVSGTWKTNLTPDKLGVVALDPDALSISGLHNYVKYLKSSGQDAGRYQLNMWSKIFQPLSVAVMALMALSFIFGPLRSVPMGVRVVTGISFGFVFYVLDQIFGPLTLVYGIPPIIGALLPSASFFLISLWLLMRKS
With B11 the “fold change of barcode share” value [1] was 0.293 ± 0.12 and the “fold change of barcode share” value [2] was < 0.00636.

B12: lptG L77A (protein)
chain: MQPFGVLDRYIGKTIFTTIMMTLFMLVSLSGIIKFVDQLKKAGQGSYDALGAGMYTLLSVPKDVQIFFPMAALLGAALGLGMLAQRSELVVMQASGFTRMQVALSVMKTAIPLVLLTMAIGEWVAPQGEQMARNYRAQAMYGGSLLSTQQGLWAKDGNNFVYIERVKGDEELGGISIYAFNENRRLQSVRYAATAKFDPEHKVWRLSQVDESDLTNPKQITGSQTVSGTWKTNLTPDKLGVVALDPDALSISGLHNYVKYLKSSGQDAGRYQLNMWSKIFQPLSVAVMMLMALSFIFGPLRSVPMGVRVVTGISFGFVFYVLDQIFGPLTLVYGIPPIIGALLPSASFFLISLWLLMRKS
In the case of B12, the “fold change of barcode share” value [1] is reported as 0.514 ± 0.1 and the “fold change of barcode share” value [2] is reported as 0.00314 ± 0.0027.

B13: lptG M288W (protein)
chain: MQPFGVLDRYIGKTIFTTIMMTLFMLVSLSGIIKFVDQLKKAGQGSYDALGAGMYTLLSVPKDVQIFFPMAALLGALLGLGMLAQRSELVVMQASGFTRMQVALSVMKTAIPLVLLTMAIGEWVAPQGEQMARNYRAQAMYGGSLLSTQQGLWAKDGNNFVYIERVKGDEELGGISIYAFNENRRLQSVRYAATAKFDPEHKVWRLSQVDESDLTNPKQITGSQTVSGTWKTNLTPDKLGVVALDPDALSISGLHNYVKYLKSSGQDAGRYQLNMWSKIFQPLSVAVWMLMALSFIFGPLRSVPMGVRVVTGISFGFVFYVLDQIFGPLTLVYGIPPIIGALLPSASFFLISLWLLMRKS
B13 was tested, and the “fold change of barcode share” value [1] was 0.296 ± 0.18 and the “fold change of barcode share” value [2] was 0.00577 ± 0.0034.
